According to article PMC4187115 (Chembiochem : a European journal of chemical biology, 2014):
Residues, ends and D or L forms follow the SMILES beside them. *: point of attachment. Cbz = O=C(OCc1ccccc1)*

Legend:
p97-Cys0 = assay: ATPase assay of the cysteine-less p97 variant; format: biochemical; settings: relative to wt-p97
p97 [1] = biological target: T1, p97 (Homo sapiens, UniProt P55072); assay: Functional chromatography on p97-resin; format: binding; settings: from crude extract in PBK, without ATP
T1 sequence (P55072 whole entry): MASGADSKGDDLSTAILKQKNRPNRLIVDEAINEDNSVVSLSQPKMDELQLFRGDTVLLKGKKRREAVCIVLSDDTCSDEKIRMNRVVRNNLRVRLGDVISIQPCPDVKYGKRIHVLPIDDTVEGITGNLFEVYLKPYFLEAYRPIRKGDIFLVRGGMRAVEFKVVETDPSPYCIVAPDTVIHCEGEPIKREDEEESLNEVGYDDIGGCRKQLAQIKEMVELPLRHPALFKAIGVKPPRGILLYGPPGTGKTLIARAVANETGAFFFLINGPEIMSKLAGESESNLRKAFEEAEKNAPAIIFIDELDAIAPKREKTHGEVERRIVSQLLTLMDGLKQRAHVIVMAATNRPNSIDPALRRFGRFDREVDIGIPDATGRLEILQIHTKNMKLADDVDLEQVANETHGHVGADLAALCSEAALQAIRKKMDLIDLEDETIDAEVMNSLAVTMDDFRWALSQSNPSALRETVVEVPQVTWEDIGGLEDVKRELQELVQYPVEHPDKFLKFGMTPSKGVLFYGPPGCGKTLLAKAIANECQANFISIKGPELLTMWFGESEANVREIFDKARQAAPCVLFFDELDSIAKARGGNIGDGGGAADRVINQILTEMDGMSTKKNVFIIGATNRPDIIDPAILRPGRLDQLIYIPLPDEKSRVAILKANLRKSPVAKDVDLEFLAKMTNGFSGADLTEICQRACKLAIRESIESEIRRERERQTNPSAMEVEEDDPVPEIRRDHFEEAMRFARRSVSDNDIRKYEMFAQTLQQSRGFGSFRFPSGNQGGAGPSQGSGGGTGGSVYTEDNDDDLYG

[2] = system: endoplasmic reticulum associated protein degradation (ERAD) pathway; assay: ERAD reporter assay, HEK293 cells expressing TCRα-GFP; format: cell-based; settings: versus DMSO control
caspase 3 = assay: Western blot, apoptosis; format: cell-based; settings: HEK293 cells, 24 h at 37 °C; 1 at 10-50 µM, 2 at 1-10 µM, 3 at 1-20 µM
recombinant E. coli FtsZ = recombinant E. coli FtsZ (Escherichia coli, UniProt P0A9A6); settings: from crude extract in PBK
Chain of UniProt P0A9A6 (P0A9A6 whole entry): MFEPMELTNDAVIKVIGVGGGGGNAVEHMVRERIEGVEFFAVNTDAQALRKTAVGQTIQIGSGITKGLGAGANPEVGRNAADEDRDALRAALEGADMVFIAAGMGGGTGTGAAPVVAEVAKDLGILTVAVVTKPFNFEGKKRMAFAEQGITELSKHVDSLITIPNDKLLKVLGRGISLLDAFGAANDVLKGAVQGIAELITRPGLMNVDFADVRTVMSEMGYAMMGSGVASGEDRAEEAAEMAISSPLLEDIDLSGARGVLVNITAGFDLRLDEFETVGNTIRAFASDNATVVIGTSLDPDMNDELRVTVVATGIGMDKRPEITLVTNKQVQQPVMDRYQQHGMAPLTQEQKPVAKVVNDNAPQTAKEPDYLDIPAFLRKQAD

p97 [3] = biological target: T1, p97; assay: Malachite green ATPase assay of p97; settings: for mode of inhibition relative to ATP: dose-response at 100 µM, 500 µM and 1 mM ATP; for IC50: read-out: IC50 value, inhibition of the ATPase activity of p97, 50 nM p97 hexamer, 100 µM ATP, malachite green
HEK293 cell line = assay: Cytotoxicity in the HEK293 cell line; settings: read-out: EC50 value (cytotoxicity); HEK293 cells
TCRα-GFP = assay: Western blot, TCRα-GFP in HEK293 cells; format: cell-based; settings: 24 h at 37 °C, MG132 at 5 µM
HA-CD3δ = assay: Western blot, HA-CD3δ in HEK293 cells; format: cell-based; settings: 24 h at 37 °C, MG132 at 5 µM

Molecule	activity against p97-Cys0 (p97-Cys0)	binding to p97-resin (p97 [1])	TCRα-GFP degradation by fluorescence microscopy [2]	apoptosis (caspase 3 status) (caspase 3)	binding to FtsZ-resin (protein binding control) (recombinant E. coli FtsZ)	mode of inhibition relative to ATP (p97 [3])	EC50 (HEK293 cell line)	IC50 (p97 [3])	TCRα-GFP lower band (deglycosylated form of TCRα) level (TCRα-GFP)	HA-CD3δ level (HA-CD3δ)
O=C1c2cc(O)cc(O)c2C(=O)c2c(O)cc(O)cc21 [Compound 1, rheoemodin]	no activity	enhanced in the p97-resin purified fraction	prevented p97-mediated TCRα-GFP degradation	did not observe apoptosis	also obtained when using FtsZ-resin	ATP competitive-like inhibition	113 ± 1.2 µM			
COc1cc(OC)c2c(c1)C(=O)C1=C(C2=O)C(O)OC(C)=C1 (stereo not shown) [Compound 2, 1-hydroxydehydroherbarin]	effectively unchanged	no detectable binding		potent, dose-dependent increase in caspase 3 levels	did not appear in the protein binding controls	non-competitive	2.1 ± 0.3 µM	21.7 ± 2.2 µM		
CC(C)C[C@@H](C=O)NC(=O)[C@H](CC(C)C)NC(=O)[C@H](CC(C)C)NC(=O)OCc1ccccc1 [MG132] (Cbz-Leu-Leu-Leu-aldehyde)									dramatic increase	increased dramatically
phomapyrrolidone A [Compound 3]	effectively unchanged	bound to p97-resin in the absence of ATP	prevented p97-mediated TCRα-GFP degradation	quite modest apoptotic induction		complex pattern but was not obviously competitive-like		6.6 ± 0.1 µM		
